Data on 10 molecules can be found in the antibiotic and cytotoxicity screens of Wong et al. (2023).

In one experiment the test system is HSkMC. Description: cytotoxicity call (relative viability < 0.9). The following applies: 10 µM.
The subject of another experiment is HepG2. The experiment is described as follows: cytotoxicity call (relative viability < 0.9). The following applies: 10 µM.
A further experiment has as its system S. aureus RN4220. The experiment is described as follows: growth inhibition call (relative growth <= 0.2). The following applies: 50 µM.

The list shows a part of the results.

`C[C@H]1CN([C@@H](C)CO)C(=O)c2cc(NC(=O)NC3CCCCC3)ccc2O[C@@H]1CN(C)Cc1ccc(Cl)c(Cl)c1`: the cytotoxicity call in the experiment on HSkMC and in the experiment on HepG2 was “inactive” each time. In addition, the growth inhibition call with S. aureus RN4220 is “inactive”.
Consider `C[C@H](CO)N1C[C@H](C)[C@@H](CN(C)S(=O)(=O)c2cccs2)Oc2c(NS(=O)(=O)c3cccs3)cccc2C1=O`, for which the cytotoxicity call with HSkMC and in the experiment on HepG2 was “inactive” throughout. In addition, the growth inhibition call with S. aureus RN4220 is “inactive”.
With `Clc1ccc([C@H]2CC(C3CC3)=NN2c2ccccc2)cc1`, the cytotoxicity call in the experiment on HSkMC and in the experiment on HepG2 was “inactive” each time. Further, in the experiment with S. aureus RN4220, the growth inhibition call was “inactive”.
Regarding `COc1ccc(NC(=O)N(C)C[C@H]2OCCCC[C@H](C)Oc3ccc(NC(=O)c4ccccc4)cc3C(=O)N([C@@H](C)CO)C[C@H]2C)cc1`, the cytotoxicity call in the experiment on HSkMC and in the experiment with HepG2 was “inactive” each time. In addition, the growth inhibition call with S. aureus RN4220 is “inactive”.
As for `C[C@@H](O)C#Cc1ccc2c(c1)O[C@@H](CN(C)C)[C@@H](C)CN([C@@H](C)CO)S2(=O)=O`, the cytotoxicity call in the experiment with HSkMC and with HepG2 was “inactive” throughout. The growth inhibition call with S. aureus RN4220 was “inactive”.
Consider `COc1ccccc1S(=O)(=O)N[C@@H]1C=C[C@@H](CC(=O)N2CCN(C)CC2)O[C@H]1CO`, for which the cytotoxicity call in the experiment on HSkMC and in the experiment on HepG2 was “inactive” each time. In the experiment with S. aureus RN4220, the growth inhibition call was “inactive”.
For the molecule `COc1ccc(C(C)=O)c(O)c1`, the cytotoxicity call in the experiment on HSkMC and in the experiment with HepG2 was “inactive” throughout. Further, the growth inhibition call in the experiment with S. aureus RN4220 was “inactive”.
`COc1ccc(CN(C)C[C@H]2Oc3ccc(NC(=O)Nc4ccc(C(F)(F)F)cc4)cc3C(=O)N([C@@H](C)CO)C[C@@H]2C)cc1`: the cytotoxicity call with HSkMC and in the experiment on HepG2 was “active” throughout. Besides, the growth inhibition call in the experiment on S. aureus RN4220 is “inactive”.
In the case of `C[C@@H]1CCCCO[C@H](CN(C)CC2CC2)[C@H](C)CN([C@H](C)CO)C(=O)c2cc(NC(=O)C3CCCCC3)ccc2O1`, the cytotoxicity call in the experiment with HSkMC and with HepG2 was “inactive” each time. Also, the growth inhibition call in the experiment with S. aureus RN4220 is “inactive”.
Turning to `C[C@@H]1CCCCO[C@H](CN(C)Cc2ccc3c(c2)OCO3)[C@@H](C)CN([C@H](C)CO)C(=O)c2cc(NC(=O)C3CCCCC3)ccc2O1`, the cytotoxicity call in the experiment on HSkMC (human skeletal muscle cells) is “inactive”. Besides, in the experiment with HepG2, the cytotoxicity call is “active”. Besides, in the experiment with S. aureus RN4220, the growth inhibition call is “inactive”.
